For 31 molecules, binding signal results are on record in paper PMC9911399, “Two distinct binding modes provide the RNA-binding protein RbFox with extraordinary sequence specificity”.

First the molecules themselves.
B1: UUUCGGC (DNA:RNA)
RNA: GGGAGACCGGAAUUCAGAUUGUCCUUUCGGCUUAAAUCCCGUCGUAGCCACCA
DNA 1: CAATCTGAATTCCGGTCTCCC
DNA 2: TGGTGGCTACGACGGGATT
B2: GGUAUCU (DNA:RNA)
RNA: B1 RNA with U25G, U26G, C28A, G29U, G30C, C31U
DNA 1: CAATCTGAATTCCGGTCTCCC
DNA 2: TGGTGGCTACGACGGGATT
B3: GUUUCAC (DNA:RNA)
RNA: B1 RNA with U25G, C28U, G29C, G30A
DNA 1: CAATCTGAATTCCGGTCTCCC
DNA 2: TGGTGGCTACGACGGGATT
B4: CCACUUU (DNA:RNA)
RNA: B1 RNA with U25C, U26C, U27A, G29U, G30U, C31U
DNA 1: CAATCTGAATTCCGGTCTCCC
DNA 2: TGGTGGCTACGACGGGATT
B5: AAGGGCG (DNA:RNA)
RNA: B1 RNA with U25A, U26A, U27G, C28G, G30C, C31G
DNA 1: CAATCTGAATTCCGGTCTCCC
DNA 2: TGGTGGCTACGACGGGATT
B6: AUCCCCC (DNA:RNA)
RNA: B1 RNA with U25A, U27C, G29C, G30C
DNA 1: CAATCTGAATTCCGGTCTCCC
DNA 2: TGGTGGCTACGACGGGATT
B7: CCGUCGG (DNA:RNA)
RNA: B1 RNA with U25C, U26C, U27G, C28U, G29C, C31G
DNA 1: CAATCTGAATTCCGGTCTCCC
DNA 2: TGGTGGCTACGACGGGATT
B8: CAAGAAG (DNA:RNA)
RNA: GGGAGACCGGAAUUCAGAUUGUCCCAAGAAGUUAAAUCCCGUCGUAGCCACCA
DNA 1: CAATCTGAATTCCGGTCTCCC
DNA 2: TGGTGGCTACGACGGGATT
B9: GAUCACC (DNA:RNA)
RNA: B1 RNA with U25G, U26A, G29A, G30C
DNA 1: CAATCTGAATTCCGGTCTCCC
DNA 2: TGGTGGCTACGACGGGATT
B10: GCAAUGG (DNA:RNA)
RNA: B8 RNA with C25G, A26C, G28A, A29U, A30G
DNA 1: CAATCTGAATTCCGGTCTCCC
DNA 2: TGGTGGCTACGACGGGATT
B11: CGUAAGG (DNA:RNA)
RNA: B8 RNA with A26G, A27U, G28A, A30G
DNA 1: CAATCTGAATTCCGGTCTCCC
DNA 2: TGGTGGCTACGACGGGATT
B12: GACAUCA (DNA:RNA)
RNA: B8 RNA with C25G, A27C, G28A, A29U, A30C, G31A
DNA 1: CAATCTGAATTCCGGTCTCCC
DNA 2: TGGTGGCTACGACGGGATT
B13: CGACAAA (DNA:RNA)
RNA: B8 RNA with A26G, G28C, G31A
DNA 1: CAATCTGAATTCCGGTCTCCC
DNA 2: TGGTGGCTACGACGGGATT
B14: UACGCUA (DNA:RNA)
RNA: B8 RNA with C25U, A27C, A29C, A30U, G31A
DNA 1: CAATCTGAATTCCGGTCTCCC
DNA 2: TGGTGGCTACGACGGGATT
B15: UGGGAAA (DNA:RNA)
RNA: B8 RNA with C25U, A26G, A27G, G31A
DNA 1: CAATCTGAATTCCGGTCTCCC
DNA 2: TGGTGGCTACGACGGGATT
B16: UCGAGUC (DNA:RNA)
RNA: B1 RNA with U26C, U27G, C28A, G30U
DNA 1: CAATCTGAATTCCGGTCTCCC
DNA 2: TGGTGGCTACGACGGGATT
B17: GUCCUUA (DNA:RNA)
RNA: B1 RNA with U25G, U27C, G29U, G30U, C31A
DNA 1: CAATCTGAATTCCGGTCTCCC
DNA 2: TGGTGGCTACGACGGGATT
B18: UGAACCC (DNA:RNA)
RNA: B1 RNA with U26G, U27A, C28A, G29C, G30C
DNA 1: CAATCTGAATTCCGGTCTCCC
DNA 2: TGGTGGCTACGACGGGATT
B19: GCAGAUU (DNA:RNA)
RNA: B8 RNA with C25G, A26C, A30U, G31U
DNA 1: CAATCTGAATTCCGGTCTCCC
DNA 2: TGGTGGCTACGACGGGATT
B20: UCUGCCC (DNA:RNA)
RNA: B1 RNA with U26C, C28G, G29C, G30C
DNA 1: CAATCTGAATTCCGGTCTCCC
DNA 2: TGGTGGCTACGACGGGATT
B21: UCCGCAG (DNA:RNA)
RNA: B8 RNA with C25U, A26C, A27C, A29C
DNA 1: CAATCTGAATTCCGGTCTCCC
DNA 2: TGGTGGCTACGACGGGATT
B22: ACAAGCU (DNA:RNA)
RNA: B8 RNA with C25A, A26C, G28A, A29G, A30C, G31U
DNA 1: CAATCTGAATTCCGGTCTCCC
DNA 2: TGGTGGCTACGACGGGATT
B23: GUUACAA (DNA:RNA)
RNA: B1 RNA with U25G, C28A, G29C, G30A, C31A
DNA 1: CAATCTGAATTCCGGTCTCCC
DNA 2: TGGTGGCTACGACGGGATT
B24: CCAGAAC (DNA:RNA)
RNA: B8 RNA with A26C, G31C
DNA 1: CAATCTGAATTCCGGTCTCCC
DNA 2: TGGTGGCTACGACGGGATT
B25: CCCACAU (DNA:RNA)
RNA: B8 RNA with A26C, A27C, G28A, A29C, G31U
DNA 1: CAATCTGAATTCCGGTCTCCC
DNA 2: TGGTGGCTACGACGGGATT
B26: GGAAUAA (DNA:RNA)
RNA: B8 RNA with C25G, A26G, G28A, A29U, G31A
DNA 1: CAATCTGAATTCCGGTCTCCC
DNA 2: TGGTGGCTACGACGGGATT
B27: GCUCCGA (DNA:RNA)
RNA: B1 RNA with U25G, U26C, G29C, C31A
DNA 1: CAATCTGAATTCCGGTCTCCC
DNA 2: TGGTGGCTACGACGGGATT
B28: CCAUUAC (DNA:RNA)
RNA: B8 RNA with A26C, G28U, A29U, G31C
DNA 1: CAATCTGAATTCCGGTCTCCC
DNA 2: TGGTGGCTACGACGGGATT
B29: UUAUCAA (DNA:RNA)
RNA: B8 RNA with C25U, A26U, G28U, A29C, G31A
DNA 1: CAATCTGAATTCCGGTCTCCC
DNA 2: TGGTGGCTACGACGGGATT
B30: UUACGAG (DNA:RNA)
RNA: B1 RNA with U27A, G30A, C31G
DNA 1: CAATCTGAATTCCGGTCTCCC
DNA 2: TGGTGGCTACGACGGGATT
B31: GCUAUGU (DNA:RNA)
RNA: B1 RNA with U25G, U26C, C28A, G29U, C31U
DNA 1: CAATCTGAATTCCGGTCTCCC
DNA 2: TGGTGGCTACGACGGGATT

Changes are numbered by the printed parent chain; changes in the protein carry UniProt numbers. This is one part of the list.

This test addresses T1, RBFOX1 RRM RbFoxmut (Fox-RRM*) (Homo sapiens, UniProt Q9NWB1 109-208, R118D;E147R;N151S;E152T).
T1 sequence: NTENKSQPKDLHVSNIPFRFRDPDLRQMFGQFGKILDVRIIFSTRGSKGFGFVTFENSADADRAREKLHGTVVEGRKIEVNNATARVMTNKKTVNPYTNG
As to the kind of experiment: EMSA; HiTS-Eq, 1 nM pool, 10 min; buffer printed only for the single-RNA assays: 10 mM Tris pH 7.5, 150 mM NaCl, 3.4 mM EDTA, 0.001% NP-40, 30 C. As to conditions: tags: His6 N-terminal (pET28a); label: 5' 32P. In a few lines:
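A pool of RNA with 7 randomized nucleotides, 5′-radiolabelled and with DNA-annealed flanks, was equilibrated at 1 nM for 10 min in 50 µL with purified RbFox RRM, wild type or mutant, across increasing protein concentrations. Free RNA was separated by 8% native PAGE, excised, reverse-transcribed, barcoded by PCR and sequenced. Relative association constants were obtained from read-count changes of each RNA species versus the control reaction and normalised to the cognate motif.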
Turning to B1, the binding signal is 0.104 KA relative to UGCAUGU. With B2 the figure was 0.206 KA relative to UGCAUGU; with B3, 0.12 KA relative to UGCAUGU. Regarding B4, the binding signal is 0.0912 KA relative to UGCAUGU. With B5 the figure was 0.0948 KA relative to UGCAUGU; with B6, 0.0511 KA relative to UGCAUGU.

As for B7, the binding signal is 0.0701 KA relative to UGCAUGU. As for B8, the figure is 0.0974 KA relative to UGCAUGU; as for B9, 0.049 KA relative to UGCAUGU. As for B10, the figure is 0.0714 KA relative to UGCAUGU; as for B11, 0.0908 KA relative to UGCAUGU.

Regarding B12, the binding signal is 0.116 KA relative to UGCAUGU. As for B13, the figure is 0.0565 KA relative to UGCAUGU. With B14 the figure was 0.106 KA relative to UGCAUGU. As to B15, the binding signal was 0.0842 KA relative to UGCAUGU. For B16, the binding signal was 0.122 KA relative to UGCAUGU. As for B17, the figure is 0.0907 KA relative to UGCAUGU; as for B18, 0.0521 KA relative to UGCAUGU. With B19 the figure was 0.0853 KA relative to UGCAUGU; with B20, 0.0726 KA relative to UGCAUGU; with B21, 0.0819 KA relative to UGCAUGU.

As to B22, the binding signal is 0.084 KA relative to UGCAUGU. With B23 the figure was 0.0644 KA relative to UGCAUGU; with B24, 0.0931 KA relative to UGCAUGU. With B25 the figure was 0.102 KA relative to UGCAUGU; with B26, 0.122 KA relative to UGCAUGU; with B27, 0.0815 KA relative to UGCAUGU. With B28 the figure was 0.106 KA relative to UGCAUGU; with B29, 0.0756 KA relative to UGCAUGU; with B30, 0.0808 KA relative to UGCAUGU. B31: the binding signal is 0.23 KA relative to UGCAUGU.
